In general, % Inhibition refers to the change of the read-out against control, counted positive when it falls.

About 540 (0.36%) of roughly 150,000 compounds showed an effect of 50% or more. This is one part of the list.

The assay relates to Plasmodium falciparum. Nature of the assay: Primary screen in NF54 nanoGlo assay, in single point, at 2uM, 72h; a lower Z score goes with more inhibition. Format: functional, Erythrocyte. The note with it: timepoint 72 hour.
As for `O=C(c1ccsc1)N1CCc2sccc2C1`, the “% Inhibition” value is reported as 5% and the Z score was -0.97.

In the case of `N#CC1(N(C(=O)c2cc(Cl)ccc2F)C2CC2)CCC1`, the “% Inhibition” value was -12% and the Z score is 1.17.

On to `O=C(c1ccccc1)N(CC1CCN(C2Cc3ccccc3C2)CC1)C[C@H]1CCCO1`, for which the “% Inhibition” value stood at 1% and the Z score is reported as -0.09.

With `CN1C(=O)C[C@@H](C(=O)NCc2ccc3[nH]cnc3c2)c2ccccc21`, the “% Inhibition” value is given as 3% and the Z score was -0.45.

Regarding `Cc1cccc(CC(CNC(=O)C2CCOC2)C(=O)O)c1` (centres undefined), the “% Inhibition” value is on record as -16% and the Z score is given as 1.91.

`COc1ccc(-c2cc(O)n(-c3nc4ccccc4s3)n2)cc1OC`: the “% Inhibition” value turned out to be 1% and the Z score is -0.08.

For `CC[C@H](C)CC(=O)OCCOc1nn(C)c(N)c1C(=O)OC`, the “% Inhibition” value is on record as 10% and the Z score is recorded as -1.57.

With `Cc1cccc(CN2CCCn3nc(C(=O)NC4CCCC4)cc3C2=O)c1`, the “% Inhibition” value was -7% and the Z score amounted to 1.39.

Turning to `O=C1N[C@H]2C[C@@H](C(=O)NC[C@H]3O[C@H](CCOc4cc(C5CCCC5)ccc41)CC[C@@H]3O)N(C1Cc3ccccc3C1)C2`, the “% Inhibition” value is on record as -7% and the Z score turned out to be 1.06.

For the molecule `Cc1nc(N2CCN(C)CC2)cc(N2CCN(C(=O)C3CCCC3)CC2)n1`, the “% Inhibition” value is reported as -24% and the Z score came out at 2.11.

With `Cc1nn(S(=O)(=O)N2CCC(C)CC2)c(C)c1Br`, the “% Inhibition” value is listed as -34% and the Z score is reported as 4.

Turning to `Cc1ccc2[nH]c3c(c2c1)CN(C)CCC3`, the “% Inhibition” value amounted to 4% and the Z score is reported as -0.52.

As for `CN1C[C@H](CNC(=O)Cc2ccsc2)OCC1=O`, the “% Inhibition” value is -8% and the Z score is reported as 1.51.

As to `CCOc1c(Br)cc(Br)cc1CNCC(=O)N1CCCC1`, the “% Inhibition” value came out at 5% and the Z score was -0.94.

Take `Cc1ccc(CN(Cc2ccncc2)C(=O)[C@@H]2CCCCCN2C)s1`: the “% Inhibition” value is listed as -7% and the Z score was determined as 1.32.

Consider `CC(=O)N1CCC(CC(=O)NCCCc2nc(C)no2)(N2Cc3ccccc3C2=O)CC1`, for which the “% Inhibition” value is -16% and the Z score is given as 2.28.

With `Cc1ncsc1C(=O)N1CCC(CNC(=O)c2cnn(C)c2)CC1`, the “% Inhibition” value is -12% and the Z score is listed as 1.76.

For `CCN1CCN(c2ncc(N3CCC(C(=O)NCC4CC4)CC3)cn2)CC1`, the “% Inhibition” value was determined as 3% and the Z score is on record as -0.44.

Turning to `Cc1cnn(CC(C)NC(=O)N2CCCC2CCO)c1` (centres undefined), the “% Inhibition” value is reported as 2% and the Z score is recorded as -0.35.

Turning to `COc1cccc(C2c3[nH]c4ccccc4c3C[C@H]3C(=O)N(C4CCN(Cc5ccccc5)CC4)CC(=O)N23)c1` (some centres undefined), the “% Inhibition” value came out at 15% and the Z score is given as -1.95.

In the case of `Cc1ccc(Cl)cc1C(=O)N[C@H]1C[C@H]2C(=O)NCC(=O)N2C1`, the “% Inhibition” value is -13% and the Z score came to 1.92.

As for `CC(C)c1nccc(CN(Cc2cocn2)Cc2cocn2)n1`, the “% Inhibition” value is given as -11% and the Z score worked out at 2.03.

Consider `Cc1nc(N2CCN(C/C=C/c3ccccc3)CC2)c2c(C)noc2n1`, for which the “% Inhibition” value is -12% and the Z score is on record as 2.21.

In the case of `Nc1nc2cc(C(F)(F)C(F)(F)F)ccc2[nH]1`, the “% Inhibition” value was 2% and the Z score is given as -0.28.

Take `C[C@@H]1C[C@@H](NC(=O)C2(C#N)CCC2)c2ccccc2O1`: the “% Inhibition” value was -9% and the Z score turned out to be 1.49.

With `O=S(=O)(NCc1ccc2[nH]c3c(c2c1)CCCCCC3)N1CCOCC1`, the “% Inhibition” value is on record as -4% and the Z score is listed as 0.51.

For the molecule `CC(=O)N1CCC(N2CCOC[C@H]2c2nc(-c3ccc(F)cc3)c[nH]2)CC1`, the “% Inhibition” value was 5% and the Z score is -0.79.

In the case of `Cc1c(C(=O)N2CCC(c3nc(N(C)C)no3)CC2)ccn1C`, the “% Inhibition” value is recorded as -9% and the Z score turned out to be 1.05.

`Cc1noc(C)c1S(=O)(=O)NC[C@H](O)c1ccoc1`: the “% Inhibition” value is -5% and the Z score is 0.77.

For the molecule `CN1CCC(O)(C(=O)N[C@H]2CCCC[C@@H]2c2ccccc2)CC1`, the “% Inhibition” value is recorded as 4% and the Z score is -0.62.

Turning to `O=C([C@@H]1CC(c2ccc(Cl)cc2Cl)=NO1)N1CCC1`, the “% Inhibition” value is recorded as -13% and the Z score turned out to be 2.02.

With `CC1CCCN(c2nccc(N3Cc4ccccc4C3)n2)C1CN` (centres undefined), the “% Inhibition” value is reported as -2% and the Z score was found to be 0.3.

For the molecule `Cc1noc2cc(NS(=O)(=O)N3CCCC3)ccc12`, the “% Inhibition” value was -10% and the Z score was found to be 1.33.

As to `NC(=O)C[C@H]1CCN(C(=O)C2(c3cccc(Br)c3)CCCCC2)C1`, the “% Inhibition” value is 6% and the Z score is recorded as -0.66.

For the molecule `CCCCN(CC(F)(F)F)C(=O)Nc1cn[nH]c1`, the “% Inhibition” value was 0% and the Z score stood at 0.05.

For the molecule `O=C(NCC1(Cc2ccccc2)CCC1)C1CC2CCC1O2` (centres undefined), the “% Inhibition” value was -9% and the Z score is listed as 1.38.

Regarding `O=C1NCCCC[C@@H]1N(Cc1cccc(OCCc2ccsc2)c1)C(=O)C1CCCCC1`, the “% Inhibition” value is -19% and the Z score worked out at 2.55.

For the molecule `Cc1nc(C(=O)NC2(c3ccccc3)CCOCC2)cs1`, the “% Inhibition” value is given as -1% and the Z score came out at 0.14.

As for `CCn1cc(CN2C[C@H]3C[C@H](C2)[C@@H]2CCCC(=O)N2C3)cc1C#N`, the “% Inhibition” value is listed as 6% and the Z score is -1.3.

Consider `O=C(CN(C[C@H]1CCCO1)C(=O)Nc1ccccc1C(F)(F)F)N(Cc1ccc(F)cc1)Cc1cccs1`, for which the “% Inhibition” value is -5% and the Z score was determined as 0.6.

Take `Cc1c(C(=O)N[C@@H](CO)C2CCC2)c2ccccc2n(C)c1=O`: the “% Inhibition” value is listed as -17% and the Z score was 2.03.

Take `O=C(CN(CC1(O)CCCC1)CC1(O)CCCC1)NC1CCCC1`: the “% Inhibition” value is given as 1% and the Z score is -0.17.

Source of the values: ChEMBL document CHEMBL4888484, “Replenishing the malaria drug discovery pipeline: Screening and hit evaluation of the MMV Hit Generation Library 1 (HGL1) against asexual blood stage Plasmodium falciparum ,using a nano luciferase reporter read-out” (2022).
